Test results published in PubChem BioAssay AID1224903 (Bradner/Qi Labs at DFCI, 2016).
This is one part of the list. Shown are side measurements of this screen, not its main read-out; they come without a call. The list favours compounds with an active or inconclusive main result.

target: Chromobox protein homolog 7 (Homo sapiens) (UniProt O95931); experiment: CBX7 chromodomain binding inhibitors, primary screen, biochemical, AlphaScreen (AID 1224903); conditions: AlphaScreen His6-CBX7 / biotin-H3K27me3 peptide binding; measured here: z-score of CBX7 signal; stronger effect = lower value
Sequence of UniProt O95931 (O95931 whole entry, looked up): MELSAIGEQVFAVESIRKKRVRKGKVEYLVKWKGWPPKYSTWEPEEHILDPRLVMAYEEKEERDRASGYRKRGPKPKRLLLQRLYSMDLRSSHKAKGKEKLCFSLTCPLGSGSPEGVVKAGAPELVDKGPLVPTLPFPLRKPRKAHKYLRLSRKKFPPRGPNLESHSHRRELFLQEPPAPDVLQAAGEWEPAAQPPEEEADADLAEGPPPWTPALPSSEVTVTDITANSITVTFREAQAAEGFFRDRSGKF

Row | Compound | z-score
1 | COc1ccc(NC(=O)[C@H](Cc2ccccc2)N2Cc3ccccc3C2=O)cc1OC | -1.63
2 | O=C(c1ccc2nc(-c3ccco3)c(-c3ccco3)nc2c1)N1CCc2ccccc2C1 | -2.76
3 | Cc1cccc2nc(-c3ccccn3)c(Nc3ccccc3)n12 | -21.5
4 | Oc1ccc(-c2nc(-c3ccccc3)c(-c3ccccc3)[nH]2)cc1 | -0.573
5 | NC(=O)c1ccc(-c2ncc(-c3ccccc3)o2)cc1 | -0.647
6 | COC(=O)c1c[nH]n2c(NC3CCC(C)CC3)c(-c3ccc(F)cc3)nc12 (stereo unspecified) | -0.842
7 | Cc1ccc(C)c(-c2csc(Nc3ccc(C)c(Cl)c3)n2)c1 | -10.8
8 | N#Cc1nc(COc2ccccc2)oc1N1CCCCCC1 | -3.4
9 | CCc1nnc(NC(=O)c2ccc(S(=O)(=O)N3CCCCC3)cc2)o1 | -9.94
10 | COc1ccc(-c2nc(-c3cccs3)c(-c3cccs3)[nH]2)cc1OC | -0.551
11 | Cc1ccc2[nH]c3c(c2c1)CCCC3NCc1ccc(F)cc1 (stereo unspecified) | -3.59
12 | CN(C)c1ccc(C2NC(C(=O)O)Cc3c2[nH]c2ccccc32)cc1 (stereo unspecified) | -8.2
13 | Cc1nc(N)sc1-c1csc(Nc2ccc(Cl)cc2)n1 | -12.2
14 | COc1ccc(OC)c(NC2c3ccccc3C(=O)N2c2ccc(Cl)cn2)c1 (stereo unspecified) | -17.7
15 | OC1CCCc2c1[nH]c1ccc(OCc3ccccc3)cc21 (stereo unspecified) | -1.61
16 | COc1ccc(NC(=O)c2c(NCc3cccnc3)sc3c2CCC(C)C3)c(OC)c1 (stereo unspecified) | -7.54
17 | CCOc1ccc(-n2c(-c3ccc(OC)cc3)cc3c2CC(C)(C)CC3=O)cc1 | -11.3
18 | Cc1c(-c2ccccc2)nc2sc3c(c2c1N)CCCC3 | -5.56
19 | COc1ccc(CCNc2nc(-c3sc(N)nc3C)cs2)cc1OC | -12.9
20 | CN(Cc1ccccc1)c1oc(COc2ccc(Cl)cc2)nc1C#N | -3.22
21 | Oc1c(Br)cc(CN2CCCCC2)c2cccnc12 | -13.2
22 | Nc1ccc(-c2ccc(-c3cnc4ccccc4n3)cc2)cc1 | -9.63

Row | Compound | z-score
23 | COc1ccc(Nc2cc(C(=O)NCCCN(C)Cc3ccccc3)c3ccccc3n2)cc1OC | -11.1
24 | CC(C)c1ccc(CNc2ccc3c(c2)ncn3C(C)(C)C)cc1 | -20.4
25 | O=C(CS(=O)(=O)c1nc(-c2ccccc2)cn1-c1ccc(Cl)cc1)Nc1ccccc1F | -5.22
26 | CCOC(=O)c1cnc2c(OC)cccc2c1N1CCN(c2ccccc2F)CC1 | -0.646
27 | COCc1cc(=O)[nH]c(Nc2nc3ccccc3o2)n1 | -11.4
28 | Cc1nn(CC(O)Cn2c(C)c(C)c3ccccc32)c(C)c1Br (stereo unspecified) | -3.71
29 | COC(=O)c1c[nH]n2c(NC3CCC(C)CC3)c(-c3ccc(OC(C)C)c(OC)c3)nc12 (stereo unspecified) | -0.988
30 | COC(=O)CNc1c(-c2ccccn2)nc2ccc(Br)cn12 | -1.63
31 | N#Cc1c(-c2ccc(F)cc2)c(C#N)c(=O)n(N)c1N | -22.4
32 | O=[N+]([O-])c1ccc(-c2cn(-c3ccccc3NCc3ccccc3)cn2)o1 | -6.66
33 | COc1ccc(Oc2cc([N+](=O)[O-])cc3c2C(=O)Nc2cc(Cl)ccc2O3)cc1 | -10.6
34 | COc1ccc(CCNc2oc(COc3cccc(C)c3)nc2C#N)cc1OC | -9.78
35 | Oc1cccc(-c2nc(-c3ccccc3)c(-c3ccccc3)[nH]2)c1 | -0.655
36 | CCCN1CCN(C(=O)C2CCCN(c3nc4ccc(OCC)cc4s3)C2)CC1 (stereo unspecified) | -13.4
37 | COc1ccc(-c2nc3sccn3c2Nc2ccc3c(c2)OCO3)cc1 | -19.9
38 | COc1ccc(C(=O)Nc2nnc(-c3cccc(C)c3)o2)cc1OC | -11.1
39 | CCCCN(CC)S(=O)(=O)c1ccc(C(=O)Nc2nnc(COC)o2)cc1 | -1.63
40 | COc1ccc(-c2c(C)nn3c(NCc4ccccn4)cc(C)nc23)cc1OC | -15.1
41 | CCOC(=O)c1cnc2c(C)cccc2c1Nc1ccc(N(CC)CC)cc1 | -10.1
42 | Cc1nnc(NC(=O)c2ccc(S(=O)(=O)N3CCCC3)cc2)o1 | -1.29
43 | CCOC(=O)c1cnc2c(C)cc(Cl)cc2c1Nc1ccc(N2CCOCC2)cc1 | -3.27
44 | Cc1ccccc1NC(=O)c1cnc(Nc2nc3ccccc3o2)nc1C | -16.4

Row | Compound | z-score
45 | COc1ccccc1OCCCCCCc1c(C)n[nH]c1C | -17.9
46 | CN(C)c1ccc(Nc2nc(-c3ccccc3Cl)nc3ccccc23)cc1 | -20.9
47 | Cc1ccc(S(=O)(=O)Nc2cccc3cccnc23)cc1 | -19.5
48 | Cc1cccn2c(Nc3ccc4c(c3)OCCO4)c(-c3ccc(N(C)C)cc3)nc12 | -22.1
49 | O=S(=O)(Nc1nccs1)c1ccc(Nc2nnc(-c3ccccc3)c3ccccc23)cc1 | -1.3
50 | COc1cc(Nc2nc(-c3ccc(C)cc3)cs2)c(OC)cc1Cl | -5.96
51 | CCCC(=O)NC(c1ccc(OC)c(OC)c1)c1cc(Cl)c2cccnc2c1O (stereo unspecified) | -2.06
52 | CC(C)c1ccc(NC(=O)C(c2ccccc2)N2CCc3ccccc32)cc1 (stereo unspecified) | -3.16
53 | CC(C)n1cnc2cc(NCc3cccc4ccccc34)ccc21 | -21.5
54 | CC(C)OCc1ccc(O)c2ncccc12 | -26.5
55 | CCN(Cc1ccccc1)S(=O)(=O)c1ccc(C(=O)Nc2nnc(C)o2)cc1 | -1.32
56 | Cc1cccn2c(Nc3ccc(C(C)C)cc3)c(-c3ccccn3)nc12 | -1.28
57 | CCN(CCCNC(=O)Cc1cn(C)c2ccccc12)c1ccccc1 | -10.7
58 | O=C(Nc1nc(-c2ccccn2)cs1)c1ccc(N2C(=O)CCC2=O)cc1 | -23.1
59 | N#CCCN(CCC#N)S(=O)(=O)c1ccc(C(=O)Nc2nnc(C3CC3)o2)cc1 | -2.79
60 | COc1ccc2[nH]c(C)c(CCNCC(C)Cc3ccc4c(c3)OCO4)c2c1 (stereo unspecified) | -11.9
61 | Cc1ccc(OCc2nc(C#N)c(N3CCN(Cc4ccccc4)CC3)o2)cc1 | -9.83
62 | Oc1ccc(Nc2nc(-c3ccc(Cl)cc3)cs2)cc1 | -4
63 | Cc1ccc(S(=O)(=O)c2nc(-c3ccccc3F)oc2N2CCCCC2)cc1 | -4.94
64 | COc1ccc(-n2cnc3cc(NCc4cccc5ccccc45)ccc32)cc1 | -4.32
65 | CCC(=O)Nc1nc(C)c(-c2csc(Nc3ccc(OC)cc3)n2)s1 | -0.594
66 | CC1CCCN(S(=O)(=O)c2ccc(C(=O)Nc3nnc(-c4ccccc4Cl)o3)cc2)C1 (stereo unspecified) | -16.7

Row | Compound | z-score
67 | COc1ccccc1N1CCN(Cc2cc(Br)c(O)c3ncccc23)CC1 | -24.4
68 | O=S(=O)(c1ccc(Cl)cc1)N(CCCN1CCOCC1)Cc1cccs1 | -4.01
69 | C1=CC2=C(CO1)OCc1c2[nH]c2ccc3ccccc3c12 | -11.2
70 | COc1ccc(Cl)cc1NC(=O)CSc1nccn1-c1ccc(F)cc1 | -2.12
71 | O=S(=O)(Nc1cccc2cccnc12)c1ccccc1O | -21.3
72 | Cc1ccn2c(NC3CCCCC3)c(-c3ccccn3)nc2c1 | -14.4
73 | O=C(Nc1nc(SCc2ccccc2Cl)ns1)c1ncn[nH]1 | -11.2
74 | CCCC1CCC(c2ccc(-c3noc(-c4ccc(O)c(F)c4)n3)cc2)CC1 (stereo unspecified) | -0.668
75 | COc1cc(OC)cc(-c2nnc(NC(=O)c3ccc(S(=O)(=O)N(C)Cc4ccccc4)cc3)o2)c1 | -15.5
76 | COc1ccc(N2CCN(C(c3cccs3)C(C)NS(=O)(=O)c3ccc(F)cc3)CC2)cc1 (stereo unspecified) | -6.57
77 | COc1ccc(-c2nnc(NC(=O)c3ccc(S(=O)(=O)N(C)Cc4ccccc4)cc3)o2)c(OC)c1 | -16.8
78 | Fc1ccc(Nc2c(-c3ccccn3)nc3ccccn23)cc1 | -9.05
79 | CC1CN(S(=O)(=O)c2ccc(C(=O)Nc3nnc(-c4ccccc4Cl)o3)cc2)CC(C)O1 (stereo unspecified) | -4.22
80 | COc1ccc(CNc2nc(SCC(=O)Nc3cc(C)[nH]n3)nc3ccccc23)cc1 | -1.75
81 | Cc1ccc(C)c(N2CCN(C(=O)CC3Sc4ccccc4NC3=O)CC2)c1 (stereo unspecified) | -9.5
82 | CCc1cc(C(=O)Cc2ccc3ccccc3n2)c(O)cc1OC | -2.84
83 | O=C(O)c1c[nH]c2ccc(S(=O)(=O)NCCCN3CCCC3=O)cc2c1=O | -6.73
84 | Cc1ccc2c(c1)N(C(C)C(=O)NCc1ccccn1)C(=O)CO2 (stereo unspecified) | -10
85 | COC(=O)c1c[nH]n2c(NC3CCCCCC3)c(-c3cccc(C)c3)nc12 | -11.1
86 | O=C(c1ccc2c(c1)N(Cc1ccccc1)CCS2)N1CCCCCC1 | -0.717
87 | Cc1ccc(-c2nnc(Nc3cccc(O)c3)c3ccccc23)cc1 | -10.9
88 | CCC(=O)Nc1nc(C)c(-c2csc(Nc3cc(OC)ccc3OC)n2)s1 | -7.32

Row | Compound | z-score
89 | c1nc(Oc2ccc3c4c2CCCN4CCC3)c2c3c(sc2n1)CCCC3 | -6.99
90 | Clc1ccc2nc(-c3ccccn3)c(Nc3ccc4c(c3)OCCO4)n2c1 | -6.8
91 | Cc1ccccc1Oc1cc([N+](=O)[O-])cc2c1C(=O)Nc1cc(Cl)ccc1O2 | -16.6
92 | CC(=O)Nc1ccc(S(=O)(=O)Nc2cccc3cccnc23)cc1 | -41.8
93 | COC(=O)c1c[nH]n2c(NC3CCCCCC3)c(-c3ccc(OC)cc3)nc12 | -13
94 | CCCCCn1c(=O)[nH]c2cc(C(=O)NCc3ccccn3)ccc2c1=O | -16.8
95 | O=S(=O)(c1ccccc1)N1CCN(c2ccc3nnc(-c4ccccc4)n3n2)CC1 | -12.6
96 | COc1ccc(CN2C(=O)c3cccnc3C2Nc2cc(Cl)ccc2OC)cc1 (stereo unspecified) | -12.8
97 | CN(C(=O)Cc1nc(N)n[nH]1)C1(C(=O)Nc2ccccc2)CCCCC1 | -17.7
98 | COc1ccc(CN2C(=O)c3cccnc3C2O)cc1 (stereo unspecified) | -26.8
99 | Cc1nc2ccccn2c1-c1csc(Nc2ccc(N(C)C)cc2)n1 | -18.6
100 | CCOc1ccc(N2CCc3c2nc2ccc(Br)cc2c3N)cc1 | -10.6
101 | CN(C)S(=O)(=O)c1ccc(C(=O)Nc2nnc(-c3cccs3)o2)cc1 | -13.2
102 | COC(=O)c1c[nH]n2c(NC3CCCCCC3)c(-c3ccc(C)cc3)nc12 | -11.3
103 | Cc1ccc2nc(-c3ccccn3)c(Nc3ccc4c(c3)OCO4)n2c1 | -20.9
104 | CC1CCCN(S(=O)(=O)c2ccc(C(=O)Nc3nc(-c4ccccn4)cs3)cc2)C1 (stereo unspecified) | -25.2
105 | CCCc1cc(-c2nc(-c3cccc([N+](=O)[O-])c3)cs2)ccn1 | -6.04
106 | COc1ccccc1-n1c(-c2ccc(C)cc2)cc2c1CC(C)(C)CC2=O | -6.77
